{"source": "PubChem BioAssay AID687022", "about": "(Broad Institute, 2013)", "note": "Screen size: about 1,000 compounds; about 360 (36%) were called active.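 How the source made its calls: active means Fitted curve of melting temperature shift crosses the 1.0 threshold at or below the sample's highest valid tested concentration; inconclusive means Flat fit with activity 30 to 70, or invalid fit; inactive means Opposite direction, flat within 30, or no crossing.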 The list lacks most of the strong results.", "data": [{"target": "Fibroblast growth factor 22 (Homo sapiens) (UniProt Q9HCT0)", "sequence (Q9HCT0 whole entry, looked up)": "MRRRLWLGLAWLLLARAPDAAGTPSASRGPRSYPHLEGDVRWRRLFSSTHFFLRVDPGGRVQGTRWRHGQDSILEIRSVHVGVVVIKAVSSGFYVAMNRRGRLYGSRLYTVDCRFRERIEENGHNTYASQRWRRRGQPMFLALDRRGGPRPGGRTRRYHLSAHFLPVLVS", "assay": "binders of human FGF22 protein, dose response, FGF22 synaptogenesis inhibitor project, biophysical, thermal shift, cherry-pick (AID 687022); further: reference of the scale not given here", "details": "recombinant FGF22 thermal shift, SYPRO orange melting; at 38 µM (top of the series) unless noted", "values": [{"compound": "CNC[C@@H]1Oc2ccc(NC(=O)C3CCCCC3)cc2C(=O)N([C@@H](C)CO)C[C@H]1C", "Tm shift activity": "inactive: -0.131%"}, {"compound": "COCC(=O)N(C)C[C@@H]1Oc2cc(C#C[C@H](C)O)ccc2S(=O)(=O)N([C@@H](C)CO)C[C@H]1C", "Tm shift activity": "inactive: -0.017% [at 42 µM]"}, {"compound": "C[C@@H]1CN([C@@H](C)CO)C(=O)c2cc(Br)cnc2O[C@H]1CN(C)C(=O)C1CC1", "Tm shift activity": "inactive: -0.055%"}, {"compound": "Cc1nc2cc(C(=O)NCc3ccc4c(c3)OCO4)ccc2n1-c1ccc(Br)cc1", "Tm shift activity": "inactive: 0.351%"}, {"compound": "COc1cc(NC(=O)c2cccs2)c(OC)cc1NC(=O)Nc1ccc(F)cc1", "Tm shift activity": "inactive: 0.771%"}, {"compound": "CO[C@@H]1CN(C)C(=O)c2ccc(NC(C)=O)cc2OC[C@@H](C)N(C(=O)Cc2ccccn2)C[C@H]1C", "Tm shift activity": "inactive: -0.462% [at 42 µM]"}, {"compound": "Cc1cc(C)cc(N(CC(=O)NC2CCC(C)CC2)S(=O)(=O)c2c(C)noc2C)c1", "note": "(configuration not stated)", "Tm shift activity": "inactive: -0.238%"}, {"compound": "CCOc1ccc(C(=O)CCC(=O)Nc2ccc(C)cn2)cc1", "Tm shift activity": "inactive: 0.045%"}, {"compound": "Cc1ccc(S(=O)(=O)N2C[C@]3(O)C[C@@H]4C(=O)N(c5ccccc5)C(=O)[C@@H]4C[C@]3(OC(=O)NCC3CCCCC3)C2)cc1", "Tm shift activity": "inactive: -0.138%"}, {"compound": "CC(C)c1ccc(NC2CCCN(C(=O)c3cc(C(C)C)[nH]n3)C2)cc1", "note": "(configuration not stated)", "Tm shift activity": "inactive: -0.278%"}, {"compound": "COc1ccc(NS(=O)(=O)c2cc(N=Nc3c(O)[nH]c(=O)[nH]c3=O)ccc2Cl)cc1", "Tm shift activity": "inactive: -0.202%"}, {"compound": "CCOC(=O)C1CCC(CNCc2ccccc2C)CC1", "note": "(configuration not stated)", "Tm shift activity": "inactive: 0.003%"}, {"compound": "Cc1cc(C(=O)Nc2cccc3ccccc23)n(-c2ccccc2)n1", "Tm shift activity": "inactive: -0.131%"}, {"compound": "COCC(=O)N1CC2(C1)[C@H](c1ccccc1)[C@@H](CO)N2C(=O)NC1CCCC1", "Tm shift activity": "inactive: 0.301%"}, {"compound": "CNC(=O)C[C@H]1CC[C@@H]2[C@H](COc3ccc(NC(=O)c4ccccc4OC)cc3C(=O)N2C)O1", "Tm shift activity": "inactive: -0.067%"}, {"compound": "CCCN(CCC)CC(C)(C)NS(=O)(=O)c1ccc(Cl)cc1", "Tm shift activity": "inactive: 0.103%"}, {"compound": "CC(=O)c1ccc(NS(=O)(=O)c2ccc(N)cc2)cc1", "Tm shift activity": "inactive: -0.172%"}, {"compound": "O=Cc1cc(N=Nc2cccc(C(=O)O)c2)ccc1O", "Tm shift activity": "inactive: 0.763%"}, {"compound": "CC(C)C#Cc1cnc2c(c1)C(=O)N([C@H](C)CO)C[C@H](C)[C@H](CN(C)C(=O)c1cnccn1)O2", "Tm shift activity": "inactive: -0.112% [at 42 µM]"}, {"compound": "O=C(N/N=C/c1cccc(O)c1)c1cc(-c2ccc3c(c2)OCO3)n[nH]1", "Tm shift activity": "inactive: 0.613%"}, {"compound": "COc1ccc(NC(=O)CN(c2ccc(C(C)C)cc2)S(=O)(=O)c2c(C)noc2C)cc1OC", "Tm shift activity": "inactive: -0.176%"}, {"compound": "CCCN(C)C[C@H]1Oc2cc(C#Cc3ccc(F)cc3)ccc2S(=O)(=O)N([C@H](C)CO)C[C@@H]1C", "Tm shift activity": "inactive: 0.464%"}, {"compound": "CCc1ccc(NC(=O)c2ccc(-n3cncn3)c([N+](=O)[O-])c2)cc1", "Tm shift activity": "inactive: 0.367%"}, {"compound": "C[C@@H]1CN([C@@H](C)CO)C(=O)c2cc(NC(=O)Cc3cn(C)c4ccccc34)ccc2O[C@H]1CN(C)S(C)(=O)=O", "Tm shift activity": "inactive: -1.54% [at 42 µM]"}, {"compound": "CN1CCN(C(=O)C[C@@H]2CC[C@H]3[C@@H](COC[C@H](O)CN3CC3CCCCC3)O2)CC1", "Tm shift activity": "inactive: 0.165%"}, {"compound": "CCNC(=O)C1(C)CCN(Cc2ccc(OC(F)(F)F)cc2)C1", "note": "(configuration not stated)", "Tm shift activity": "inactive: -0.221%"}, {"compound": "O=C(C(=O)N1CCN(C/C=C/c2ccccc2)CC1)c1ccccc1", "Tm shift activity": "inactive: -0.145%"}, {"compound": "COc1ccc(NC(=O)/C=C/C(=O)O)c([N+](=O)[O-])c1", "Tm shift activity": "inactive: 0.044%"}, {"compound": "Cc1ccc(S(=O)(=O)N(C)c2ccc(OC(=O)COc3ccccc3)cc2)cc1", "Tm shift activity": "inactive: 0.646%"}, {"compound": "Cc1ccc2c(c1)c(CC(=O)Nc1ccc(C)c(F)c1)c(C(=O)O)n2C", "Tm shift activity": "inactive: 0.048%"}, {"compound": "CC(C)(C)[S@](=O)N1Cc2cc(C(=O)N[C@@H]3CCN(Cc4ccccc4)C3)nc(-c3cccc(-c4cccnc4)c3)c2[C@@H]1CCO", "Tm shift activity": "inactive: 0.169% [at 42 µM]"}, {"compound": "CC(C)Oc1ccc(C(=O)NC2CCN(Cc3ccccc3)CC2)cc1", "Tm shift activity": "inactive: 0.066%"}, {"compound": "COc1ccc(/C=N/NC(=O)c2cccc([N+](=O)[O-])c2)cc1OC", "Tm shift activity": "inactive: 0.04%"}, {"compound": "C[C@@H]1CN([C@H](C)CO)C(=O)Cc2cc(NC(=O)C3CC3)ccc2O[C@H]1CN(C)S(=O)(=O)c1cn(C)cn1", "Tm shift activity": "inactive: -0.141%"}, {"compound": "COc1ccccc1NS(=O)(=O)c1cccc(NC(=O)c2cc3ccccc3oc2=O)c1", "Tm shift activity": "inactive: -0.019%"}, {"compound": "Cc1cccc(S(=O)(=O)N2CCCCN3[C@@H](CO)[C@@H](c4ccc(C#C[C@H](C)O)cc4)[C@@H]3C2)c1", "Tm shift activity": "inactive: -0.175% [at 42 µM]"}, {"compound": "COc1ccc(S(=O)(=O)Nc2ccc3c(c2)C(=O)N([C@H](C)CO)C[C@H](C)[C@H](CN(C)CC2CC2)OCCCC[C@H](C)O3)cc1", "Tm shift activity": "inactive: -0.346%"}, {"compound": "CS(=O)(=O)N1CC2(C1)[C@@H](c1ccccc1)[C@@H](CO)N2Cc1ccc(F)cc1", "Tm shift activity": "inactive: -0.945% [at 42 µM]"}, {"compound": "COC(=O)C(C)Oc1cc(OC(C)C(=O)OC)c2c(C)c(Cl)c(=O)oc2c1", "note": "(configuration not stated)", "Tm shift activity": "inactive: -0.283%"}, {"compound": "COc1ccc(CCC(C)NC(=O)Cc2ccc(OC)c(OC)c2)c(OC)c1", "note": "(configuration not stated)", "Tm shift activity": "inactive: -0.077%"}, {"compound": "CC(C)NC(=O)N1C[C@@H]2[C@H](c3ccccc31)[C@H](CO)N2C(=O)c1ccccn1", "Tm shift activity": "inactive: -0.161% [at 42 µM]"}, {"compound": "Cc1c(CCO)sc[n+]1CC(=O)OC12CC3CC(CC(C3)C1)C2", "Tm shift activity": "inactive: 0.081%"}, {"compound": "C/C=C/c1ccccc1[C@@H]1[C@@H](C#N)N(C(C)=O)[C@@H]1CO", "Tm shift activity": "inactive: -0.133% [at 42 µM]"}, {"compound": "COC(=O)C[C@@H]1CC[C@@H]2[C@@H](COc3ccc(NC(=O)c4ccc(F)c(F)c4)cc3C(=O)N2C)O1", "Tm shift activity": "inactive: 0.008%"}, {"compound": "C[C@@H]1CN([C@H](C)CO)C(=O)c2cc(N(C)C)ccc2O[C@@H]1CN(C)CC1CCCCC1", "Tm shift activity": "inactive: -0.113% [at 42 µM]"}, {"compound": "CC1CC(CC(=O)NC(=S)Nc2ccccc2Cl)C(=O)O1", "note": "(configuration not stated)", "Tm shift activity": "inactive: -0.235%"}, {"compound": "Cc1ccc(NC(=O)CN(C)C(C)C(=O)Nc2ccc(S(=O)(=O)N3CCCC3)cc2)cc1", "note": "(configuration not stated)", "Tm shift activity": "inactive: -2.89%"}, {"compound": "CC(C)C#Cc1ccc([C@@H]2[C@H](CO)N3C(=O)CN(C(=O)C4CCCCC4)C[C@@H]23)cc1", "Tm shift activity": "inactive: -2.73%"}, {"compound": "O=C(N[C@H]1CC[C@@H](CCNS(=O)(=O)c2ccc(F)cc2)O[C@H]1CO)c1ccccn1", "Tm shift activity": "inactive: -0.151% [at 42 µM]"}, {"compound": "Cc1nc2ccc(Br)cc2c(-c2ccccc2)c1C(=O)O", "Tm shift activity": "inactive: -0.524%"}, {"compound": "COCC(=O)N1C[C@@H]2[C@H](c3ccccc31)[C@H](CO)N2C(=O)c1ccccc1F", "Tm shift activity": "inactive: 0.006% [at 42 µM]"}, {"compound": "C=CCC1c2cccc(C(=O)O)c2C(=O)N1c1cccc(OC)c1", "note": "(configuration not stated)", "Tm shift activity": "inactive: 0.004%"}, {"compound": "OC[C@@H]1[C@H](c2ccc(-c3cccnc3)cc2)[C@@H]2CN(Cc3ccccn3)CCCCN12", "Tm shift activity": "inactive: -0.247%"}, {"compound": "O=C(C[C@@H]1CC[C@H]2[C@@H](COC[C@@H](O)CN2Cc2cc(F)ccc2F)O1)NCc1ccc(F)cc1", "Tm shift activity": "inactive: -0.101% [at 42 µM]"}, {"compound": "O=C(NCC[C@H]1CC[C@H](NC(=O)C2CCOCC2)[C@@H](CO)O1)Nc1ccc(Cl)cc1", "Tm shift activity": "inactive: 0.172%"}, {"compound": "C[C@@H]1CN([C@H](C)CO)C(=O)c2cc(Br)cnc2O[C@@H]1CN(C)Cc1ccc(F)cc1", "Tm shift activity": "inactive: 19.5%"}, {"compound": "CC(C)C#Cc1ccc([C@@H]2[C@@H](CO)N3C(=O)CN(C(=O)C4CCCCC4)C[C@@H]23)cc1", "Tm shift activity": "inactive: -1.19%"}, {"compound": "C[C@H](CO)N1C[C@H](C)[C@@H](CN(C)C(=O)Nc2cccc3ccccc23)Oc2c(NC(=O)C3CC3)cccc2C1=O", "Tm shift activity": "inactive: -0.274%"}, {"compound": "O=C(C[C@@H]1C[C@H]2c3cc(NC(=O)C4CCC4)ccc3O[C@H]2[C@@H](CO)O1)NCc1cc(F)ccc1F", "Tm shift activity": "inactive: 0.045% [at 42 µM]"}, {"compound": "CCc1ccc(NC(=O)COc2coc(CN3CCN(c4ccccc4)CC3)cc2=O)cc1", "Tm shift activity": "inactive: 0.11%"}, {"compound": "OC[C@H]1[C@@H]2c3ccccc3NC[C@@H]2N1Cc1ccccc1Cl", "Tm shift activity": "inactive: -0.374% [at 42 µM]"}, {"compound": "COc1ccc(NC(=O)N(C)C[C@H]2Oc3ccc(NS(=O)(=O)c4ccc(Cl)cc4)cc3C(=O)N([C@H](C)CO)C[C@H]2C)cc1", "Tm shift activity": "inactive: 0.094% [at 42 µM]"}, {"compound": "OC[C@H]1[C@@H](c2ccc(-c3cccnc3)cc2)[C@H]2CN(Cc3ccccn3)CCCCN21", "Tm shift activity": "inactive: -0.026%"}, {"compound": "Cc1ccc(N(CCC#N)C(=O)COC(=O)c2cc(C)no2)cc1", "Tm shift activity": "inactive: -0.01%"}, {"compound": "Cc1ccc2c(c1)C1CN(C)CCC1N2S(=O)(=O)c1ccc(C(C)C)cc1", "note": "(configuration not stated)", "Tm shift activity": "inactive: -0.021%"}, {"compound": "O=C(NCC[C@@H]1CC[C@H](NC(=O)C2CCOCC2)[C@H](CO)O1)Nc1ccc(Cl)cc1", "Tm shift activity": "inactive: 0.002% [at 42 µM]"}, {"compound": "Cc1[nH]c2ccccc2c1C(=O)C(=O)NCCOc1ccccc1", "Tm shift activity": "inactive: 0.288%"}, {"compound": "CCC1CCCCN1C(=O)CCNC(=O)Cn1cnc2ccccc2c1=O", "note": "(configuration not stated)", "Tm shift activity": "inactive: -0.124%"}, {"compound": "NC(=O)c1cccnc1Nc1ccccc1F", "Tm shift activity": "inactive: 0.31% [at 10 µM]"}, {"compound": "CC(C)N(C[C@H]1[C@H](c2ccccc2)[C@@H](CO)N1S(C)(=O)=O)C(=O)CN(C)C", "Tm shift activity": "inactive: -0.02%"}, {"compound": "Cc1ccccc1C(=O)Nc1nnc(S(=O)(=O)N2CCCCC2)s1", "Tm shift activity": "inactive: -0.158%"}, {"compound": "COc1ccc(C(=O)N2C[C@H]3[C@@H](c4ccccc42)[C@@H](CO)N3C(=O)c2ccc(F)cc2)cc1", "Tm shift activity": "inactive: -0.083% [at 42 µM]"}]}]}
